IC50 is the fitted dose that halves viability relative to control wells, and lower means more sensitive; a limit (>, <) means that the fit lies beyond the doses tested. The AUC spans the tested range (256-fold, ending at the top dose) of the same fit; it is 1 without any effect and falls as sensitivity rises. For part of these data: Where the top dose is marked as inferred, it was derived from the fitted curves, not read from the paper. For part of these data: Where an entry number is given, a second screen of the drug exists; the two often differ.
Key:
Assay in all cases: Viability of human cancer cell lines after 72 h of drug (GDSC screen)
AMG-706 = compound: CC1(C)CNc2cc(NC(=O)c3cccnc3NCc3ccncc3)ccc21 [AMG-706]; details: top dose 2 µM; top dose inferred
Experimental: (§1)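 Human cancer cell lines in 384-well plates, medium with 10% serum, drug for 72 h over a 256-fold dose range (nine 2-fold or five 4-fold steps up to the top dose). Adherent lines were fixed and stained with the nucleic acid dye Syto60, suspension lines read with resazurin; signal relative to control wells, capped at 0 and 100%. One two-parameter sigmoid per drug and line, fitted in a mixed model over all curves with the slope shared within a line.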

SB-715992 = compound: Cc1ccc(C(=O)N(CCCN)[C@@H](c2nc3cc(Cl)ccc3c(=O)n2Cc2ccccc2)C(C)C)cc1 [SB-715992]; details: top dose 0.128 µM; top dose inferred
Experimental: as §1

Belinostat = compound: O=C(/C=C/c1cccc(S(=O)(=O)Nc2ccccc2)c1)NO [Belinostat]; details: top dose 20 µM; top dose inferred
Experimental: as §1

NSC-207895 = compound: CN1CCN(c2ccc([N+](=O)[O-])c3no[n+]([O-])c23)CC1 [NSC-207895]; details: top dose 20 µM; top dose inferred
Experimental: as §1

YM155 = compound: COCC[n+]1c2c(n(Cc3cnccn3)c1C)C(=O)c1ccccc1C2=O [YM155]; details: top dose 5.12 µM
Experimental: as §1

JNJ-26854165 = compound: c1ccc2c(CCNc3ccc(Nc4ccncc4)cc3)c[nH]c2c1 [JNJ-26854165]; details: top dose 10 µM
Experimental: as §1

JQ1 = compound: Cc1sc2c(c1C)C(c1ccc(Cl)cc1)=N[C@@H](CC(=O)OC(C)(C)C)c1nnc(C)n1-2 [JQ1]
Experimental: as §1

OSI-906 = compound: C[C@]1(O)C[C@@H](c2nc(-c3ccc4ccc(-c5ccccc5)nc4c3)c3c(N)nccn32)C1 [OSI-906]; details: top dose 2.56 µM; top dose inferred
Experimental: as §1

FTI-277 = compound: COC(=O)[C@H](CCSC)NC(=O)c1ccc(NC[C@@H](N)CS)cc1-c1ccccc1 [FTI-277]; details: top dose 1.024 µM; top dose inferred
Experimental: as §1

JNK Inhibitor VIII = compound: CCOc1nc(NC(=O)Cc2cc(OC)ccc2OC)cc(N)c1C#N [JNK Inhibitor VIII]; details: top dose 10 µM; top dose inferred
Experimental: as §1

Docetaxel = compound: CC(=O)O[C@@]12CO[C@@H]1C[C@H](O)[C@@]1(C)C(=O)[C@H](O)C3=C(C)[C@@H](OC(=O)[C@H](O)[C@@H](NC(=O)OC(C)(C)C)c4ccccc4)C[C@@](O)([C@@H](OC(=O)c4ccccc4)[C@H]21)C3(C)C [Docetaxel]; details: top dose 0.0125 µM
Experimental: as §1

[1] = top dose 1 µM, screen: GDSC drug entry 1218, top dose inferred
[2] = top dose 2.56 µM, screen: GDSC drug entry 163

OV-90 (ovary, adherent)
AUC (AMG-706): 0.976 | IC50 (AMG-706): > 2000 nM | AUC (SB-715992): 0.907 | IC50 (SB-715992): > 128 nM | AUC (Belinostat): 0.686 | IC50 (Belinostat): 4820 nM | AUC (NSC-207895): 0.981 | IC50 (NSC-207895): > 20000 nM | AUC (YM155): 0.181 | IC50 (YM155): 25.3 nM | AUC (JNJ-26854165): 0.934 | IC50 (JNJ-26854165): > 10000 nM | AUC (JQ1; [1]): 0.975 | IC50 (JQ1; [1]): > 1000 nM | AUC (JQ1; [2]): 0.795 | IC50 (JQ1; [2]): 1590 nM | AUC (OSI-906): 0.878 | IC50 (OSI-906): > 2560 nM | AUC (FTI-277): 0.965 | IC50 (FTI-277): > 1020 nM | AUC (JNK Inhibitor VIII): 0.98 | IC50 (JNK Inhibitor VIII): > 10000 nM | AUC (Docetaxel): 0.813 | IC50 (Docetaxel): 9.23 nM

OVCAR-5 (ovary, adherent)
AUC (AMG-706): 0.91 | IC50 (AMG-706): > 2000 nM | AUC (SB-715992): 0.792 | IC50 (SB-715992): 71.4 nM | AUC (Belinostat): 0.382 | IC50 (Belinostat): 553 nM | AUC (NSC-207895): 0.982 | IC50 (NSC-207895): > 20000 nM | AUC (YM155): 0.09 | IC50 (YM155): < 20 nM | AUC (JNJ-26854165): 0.873 | IC50 (JNJ-26854165): > 10000 nM | AUC (JQ1; [1]): 0.969 | IC50 (JQ1; [1]): > 1000 nM | AUC (JQ1; [2]): 0.756 | IC50 (JQ1; [2]): 1040 nM | AUC (OSI-906): 0.816 | IC50 (OSI-906): 1790 nM | AUC (FTI-277): 0.971 | IC50 (FTI-277): > 1020 nM | AUC (JNK Inhibitor VIII): 0.937 | IC50 (JNK Inhibitor VIII): > 10000 nM | AUC (Docetaxel): 0.657 | IC50 (Docetaxel): 2.35 nM

OVCAR-8 (ovary, adherent)
AUC (AMG-706): 0.986 | IC50 (AMG-706): > 2000 nM | AUC (SB-715992): 0.754 | IC50 (SB-715992): 39.1 nM | AUC (Belinostat): 0.22 | IC50 (Belinostat): 213 nM | AUC (NSC-207895): 0.954 | IC50 (NSC-207895): > 20000 nM | AUC (YM155): 0.023 | IC50 (YM155): < 20 nM | AUC (JNJ-26854165): 0.789 | IC50 (JNJ-26854165): 3910 nM | AUC (JQ1; [1]): 0.987 | IC50 (JQ1; [1]): > 1000 nM | AUC (JQ1; [2]): 0.687 | IC50 (JQ1; [2]): 500 nM | AUC (OSI-906): 0.974 | IC50 (OSI-906): > 2560 nM | AUC (FTI-277): 0.989 | IC50 (FTI-277): > 1020 nM | AUC (JNK Inhibitor VIII): 0.989 | IC50 (JNK Inhibitor VIII): > 10000 nM | AUC (Docetaxel): 0.745 | IC50 (Docetaxel): 3.59 nM

OVISE (ovary, adherent)
AUC (AMG-706): 0.973 | IC50 (AMG-706): > 2000 nM | AUC (SB-715992): 0.87 | IC50 (SB-715992): > 128 nM | AUC (Belinostat): 0.522 | IC50 (Belinostat): 1460 nM | AUC (NSC-207895): 0.906 | IC50 (NSC-207895): > 20000 nM | AUC (YM155): 0.061 | IC50 (YM155): < 20 nM | AUC (JNJ-26854165): 0.893 | IC50 (JNJ-26854165): > 10000 nM | AUC (JQ1; [1]): 0.968 | IC50 (JQ1; [1]): > 1000 nM | AUC (JQ1; [2]): 0.69 | IC50 (JQ1; [2]): 657 nM | AUC (OSI-906): 0.962 | IC50 (OSI-906): > 2560 nM | AUC (FTI-277): 0.948 | IC50 (FTI-277): > 1020 nM | AUC (JNK Inhibitor VIII): 0.975 | IC50 (JNK Inhibitor VIII): > 10000 nM | AUC (Docetaxel): 0.731 | IC50 (Docetaxel): 4.47 nM

OVTOKO (ovary, adherent)
AUC (AMG-706): 0.919 | IC50 (AMG-706): > 2000 nM | AUC (SB-715992): 0.916 | IC50 (SB-715992): > 128 nM | AUC (Belinostat): 0.528 | IC50 (Belinostat): 1520 nM | AUC (NSC-207895): 0.962 | IC50 (NSC-207895): > 20000 nM | AUC (YM155): 0.597 | IC50 (YM155): 637 nM | AUC (JNJ-26854165): 0.791 | IC50 (JNJ-26854165): 5920 nM | AUC (JQ1; [1]): 0.953 | IC50 (JQ1; [1]): > 1000 nM | AUC (JQ1; [2]): 0.323 | IC50 (JQ1; [2]): 44.4 nM | AUC (OSI-906): 0.896 | IC50 (OSI-906): > 2560 nM | AUC (FTI-277): 0.906 | IC50 (FTI-277): > 1020 nM | AUC (JNK Inhibitor VIII): 0.791 | IC50 (JNK Inhibitor VIII): 5890 nM | AUC (Docetaxel): 0.882 | IC50 (Docetaxel): > 12.5 nM

— the supplement of paper PMC4967469
